Source: article PMC3438969 (The Journal of Biological Chemistry, 2012)

Target: T1, HscA SBD (substrate-binding domain, residues 389-616) (UniProt P0A6Z1 389-616)
T1 sequence (looked up): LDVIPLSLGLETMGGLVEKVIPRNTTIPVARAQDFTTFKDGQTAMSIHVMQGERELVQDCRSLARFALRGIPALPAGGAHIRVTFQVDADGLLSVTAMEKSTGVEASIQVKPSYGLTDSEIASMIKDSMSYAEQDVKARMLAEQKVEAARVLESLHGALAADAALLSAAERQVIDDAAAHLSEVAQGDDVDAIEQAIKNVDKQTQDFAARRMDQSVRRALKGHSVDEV
Assay: NMR titration

B1: apo-IscU (iron-sulfur cluster scaffold protein IscU) (natural protein, Escherichia coli)
chain: MAYSEKVIDHYENPRNVGSFDNNDENVGSGMVGAPACGDVMKLQIKVNDEGIIEDARFKTYGCGSAIASSSLVTEWVKGKSLDEAQAIKNTDIAEELELPPVKIHCSILAEDAIKAAIADYKSKREAK
  binding result: binds
